Results published in US12583836B2 (Anaxis Pharma Pty Ltd, priority 2020, dated 2026).

Legend:
[1] = test system: U937 human histiocytic leukemia cell line; experiment: Inhibition of TSQ induced necroptosis, 384 well plate format (CellTitre-Glo); details: Homo sapiens, U-937; U937 cells, TSQ cocktail (TNF, Smac mimetic, Q-VD-OPh), CelltiterGlo; read-out: Inhibition of TSQ-induced necroptosis (IC50 cell-based assay)
Description: […] ASSAY: Screening compounds for inhibition of TSQ induced necroptosis, 384 well plate format.
Cell Line ID: U937 human histiocytic leukemia cell line.
Cell Concentration (cells/well): Final cell density is 20000 cells per well.
Cell growth medium: HT-RPMI medium+7.4% Fetal Bovine Serum (FBS). Cells are cultured in Corning 150 cm^2 tissue culture flasks with vented caps at 37° C./5% CO2.
Incubation: Plates were incubated at 37° C./5% CO2 in a humidified incubator for 48 hours following addition of compounds and death stimuli (TSQ cocktail).
Compound concentration: 36 μM starting concentration, 1:3 dilution, 10 point
DMSO final concentration (% v/v): 0.3%.
Compounds in TSQ cocktail (T: TNF; S: Smac mimetic; Q: Q-VD-OPh) and their final concentrations:
hTNF-Fc (100 ng/ml)—produced by standard procedures as shown in Bossen et al., J Biol Chem, 2006, 281(20), 13964-13971.
Compound A (500 nM)—Smac mimetic, Tetralogic and SYNthesis med chem
Q-VD-OPh (10 μM)—MP Biomedicals
The cellular assay was carried out according to the following steps: • 1. Each well was prepared by sequential addition of: • a. DMSO (control; columns 1-2 and 23-24) or compound in DMSO—addition was performed using acoustic transfer of nl volumes of stock compound to give final test concentrations of 36, 12, 4, 1.3, 0.44, 0.148, 0.049, 0.016, 0.005 and 0.002 μM. All wells were backfilled with DMSO to a final total volume in the well of 100 nl. • b. Following compound/DMSO addition in step (a), 40 μL of cell suspension (5×10^5 cells/mL) was added to provide a final cell concentration of 20,000 cells per well, and • c. Following cell addition in step (b), 10 μL of 5×TSQ cocktail (except to positive controls; columns 1 and 23) was added to each well. • 2. After 48 hours, plate was removed from the 37° C. incubator and equilibrated to room temperature for 45 minutes. • 3. 15 μL of room temperature CellTitre-Glo2™ (Promega™) was added to each well. • 4. Shook plates for 2 minutes (˜600 rpm) and incubated at room temperature for 15 minutes to allow signal to stabilise. • 5. Read luminescence readout on a plate reader. Analysis:
Percent viability was calculated for each compound according to equation (2):
[formula] • wherein • RawData is the readout of any cell containing a compound of the invention • TA is the total activity provided by the luminescence readout from DMSO only wells (columns 2 and 24)=100% viability • NSA is the non-specific activity provided by DMSO+TSQ wells (columns 1 and 23)=0% viability
Curve fitting: 10-point titration curves are fitted with the 4-parameter logistic nonlinear regression model and the IC50 reported is the inflection point of the curve.
Analysis: Data was loaded into Dotmatics™ and visualised using the Tibco® Spotfire™ software. 10 points titration curves were fitted with the 4-parameter logistic nonlinear regression model and the IC50 reported reflect the inflection point of the curve for curve fitting.
Assay involving the TSQ cocktail (T: TNF; S: Smac mimetic; Q: Q-VD-OPh): TSQ treatment ensures that cells specifically undergo necroptotic cell death. TNF activates the TNF receptor, Smac mimetic directs the signal away from proinflammatory signaling and toward the RIP1/RIP3-mediated cell death pathways, and Q-VD-OPh ensures that the apoptotic response is blocked leaving only the programmed necrosis response. The compounds' activity (solution in DMSO) tested in this TSQ-induced assay was evaluated by determining the number of viable cells in culture by measuring the amount of ATP present as measured by CelltiterGlo.

U937 cells = experiment: Counter screen: cell viability without the TSQ cocktail (CelltiterGlo); set-up: species or system human; details: Homo sapiens, U-937, cell viability by CelltiterGlo, read-out: Off-target effect (IC50 cell-based assay)
Description: Counter screen: In parallel, all compounds were tested for their ability to affect cell viability. The same U937 cells were treated with compound in DMSO without the TSQ cocktail. This counter screen enabled evaluation of off-target effects. In this case, cell viability was measured by CelltiterGlo.

SMILES | IC50 [1] | IC50 (U937 cells)
CCS(=O)(=O)Nc1ccc(-c2n[nH]c(Nc3cnccn3)c2C(N)=O)cc1OC1(c2ccc(F)cc2)CC1 [Compound 248, 3-{4-ethanesulfonamido-3-[1-(4-fluorophenyl)cyclopropoxy]phenyl}-5-[(pyrazinyl)amino]-1H-pyrazole-4-carboxamide] | 0.01 to 1 µM | > 30 µM
Cc1cnc(Nc2[nH]nc(-c3ccc(NS(=O)(=O)C(F)F)c(OC4(c5ccc(F)cc5)CC4)c3)c2C(N)=O)cn1 [Compound 290, 3-(4-((difluoromethyl)sulfonamido)-3-(1-(4-fluorophenyl)cyclopropoxy)phenyl)-5-((5-methylpyrazin-2-yl)amino)-1H-pyrazole-4-carboxamide] | 0.01 to 1 µM | > 30 µM
CCS(=O)(=O)Nc1ccc(-c2n[nH]c(Nc3ccc(OC)cn3)c2C(N)=O)cc1 [Compound 88, 3-(4-(ethylsulfonamido)phenyl)-5-((5-methoxypyridin-2-yl)amino)-1H-pyrazole-4-carboxamide] | 1 to 30 µM | > 30 µM
Cc1cnc(Nc2[nH]nc(-c3ccc(NS(=O)(=O)CC(F)(F)F)c(OCc4ccc(F)c(Cl)c4)c3)c2C(N)=O)cn1 [Compound 155, 3-(3-((3-chloro-4-fluorobenzyl)oxy)-4-((2,2,2-trifluoroethyl)sulfonamido)phenyl)-5-((5-methylpyrazin-2-yl)amino)-1H-pyrazole-4-carboxamide] | 0.01 to 1 µM | 1 to 30 µM
CCS(=O)(=O)Nc1ccc(-c2n[nH]c(Nc3ccccn3)c2C(N)=O)cc1OCc1ccc(Cl)cc1 [Compound 39, 3-(3-((4-chlorobenzyl)oxy)-4-(ethylsulfonamido)phenyl)-5-(pyridin-2-ylamino)-1H-pyrazole-4-carboxamide] | 1 to 30 µM | > 30 µM
C[C@H](Oc1cc(-c2n[nH]c(Nc3cnccn3)c2C(N)=O)ccc1NS(=O)(=O)CC(F)(F)F)c1cccc(Cl)c1 [Compound 256, 3-{3-[(1S)-1-(3-chlorophenyl)ethoxy]-4-(2,2,2-trifluoroethane-sulfonamido)phenyl}-5-[(pyrazin-2-yl)amino]-1H-pyrazole-4-carboxamide] | > 30 µM | > 30 µM
COc1cc(Nc2[nH]nc(-c3ccc(NS(=O)(=O)C(F)F)c(O[C@@H](C)c4ccc(F)cc4)c3)c2C(N)=O)nn1C [Compound 294, (S)-3-(4-((difluoromethyl)sulfonamido)-3-(1-(4-fluorophenyl)ethoxy)phenyl)-5-((5-methoxy-1-methyl-1H-pyrazol-3-yl)amino)-1H-pyrazole-4-carboxamide] | 1 to 30 µM | > 30 µM
NC(=O)c1c(-c2ccc(NS(=O)(=O)CC(F)(F)F)c(OCc3ccc(F)cc3)c2)n[nH]c1Nc1cnc(C(F)(F)F)cn1 [Compound 238, 3-{3-[(4-fluorophenyl)methoxy]-4-(2,2,2-trifluoroethanesulfonamido)phenyl}-5-{[5-(trifluoromethyl)pyrazin-2-yl]amino}-1H-pyrazole-4-carboxamide] | 0.01 to 1 µM | > 30 µM
CCS(=O)(=O)Nc1ccc(-c2n[nH]c(Nc3cnc(C(C)(C)C)cn3)c2C(N)=O)cc1 [Compound 181, 5-((5-(tert-butyl)pyrazin-2-yl)amino)-3-(4-(ethylsulfonamido)phenyl)-1H-pyrazole-4-carboxamide] | 1 to 30 µM | > 30 µM
C[C@H](Oc1cc(-c2n[nH]c(Nc3cnc(C4CCOCC4)cn3)c2C(N)=O)ccc1NS(=O)(=O)C(F)F)c1ccc(F)cc1 [Compound 296, (S)-3-(4-((difluoromethyl)sulfonamido)-3-(1-(4-fluorophenyl)ethoxy)phenyl)-5-((5-(tetrahydro-2H-pyran-4-yl)pyrazin-2-yl)amino)-1H-pyrazole-4-carboxamide] | < 0.01 µM | > 30 µM
CCS(=O)(=O)Nc1ccc(-c2n[nH]c(Nc3cccc(C(F)F)n3)c2C(N)=O)cc1 [Compound 92, 5-((6-(difluoromethyl)pyridin-2-yl)amino)-3-(4-(ethylsulfonamido)phenyl)-1H-pyrazole-4-carboxamide] | 1 to 30 µM | > 30 µM
C[C@H](Oc1cc(-c2n[nH]c(Nc3cnc(C4CC4)cn3)c2C(N)=O)ccc1NS(=O)(=O)C(F)F)c1ccc(F)cc1 [Compound 316, (S)-5-((5-cyclopropylpyrazin-2-yl)amino)-3-(4-((difluoromethyl)sulfonamido)-3-(1-(4-fluorophenyl)ethoxy)phenyl)-1H-pyrazole-4-carboxamide] | < 0.01 µM | > 30 µM
NC(=O)c1c(-c2ccc(NS(=O)(=O)C3CC3)cc2)n[nH]c1Nc1cnccn1 [Compound 68, 3-(4-(cyclopropanesulfonamido)phenyl)-5-(pyrazin-2-ylamino)-1H-pyrazole-4-carboxamide] | 1 to 30 µM | > 30 µM
NC(=O)c1c(-c2ccc(NS(=O)(=O)CC(F)(F)F)c(OCc3ccc(F)c(F)c3)c2)n[nH]c1Nc1cnccn1 [Compound 175, 3-(3-((3,4-difluorobenzyl)oxy)-4-((2,2,2-trifluoroethyl)sulfonamido)phenyl)-5-(pyrazin-2-ylamino)-1H-pyrazole-4-carboxamide] | < 0.01 µM | > 30 µM
C[C@H](Oc1cc(-c2n[nH]c(Nc3cc(C4CCC4)on3)c2C(N)=O)ccc1NS(=O)(=O)C(F)F)c1ccc(F)cc1 [Compound 281, (S)-5-((5-cyclobutylisoxazol-3-yl)amino)-3-(4-((difluoromethyl)sulfonamido)-3-(1-(4-fluorophenyl)ethoxy)phenyl)-1H-pyrazole-4-carboxamide] | 0.01 to 1 µM | > 30 µM
NC(=O)c1c(-c2ccc(NS(=O)(=O)C(F)F)c(OC3(c4ccc(F)cc4)CC3)c2)n[nH]c1Nc1cnccn1 [Compound 307, 3-(4-((difluoromethyl)sulfonamido)-3-(1-(4-fluorophenyl)cyclopropoxy)phenyl)-5-(pyrazin-2-ylamino)-1H-pyrazole-4-carboxamide] | 0.01 to 1 µM | > 30 µM
CCS(=O)(=O)Nc1ccc(-c2n[nH]c(Nc3ccc(C(F)(F)F)nc3)c2C(N)=O)cc1OCc1ccc(F)cc1 [Compound 194] | 0.01 to 1 µM | 1 to 30 µM
COc1cnc(Nc2[nH]nc(-c3ccc(NS(=O)(=O)C(F)F)c(OCc4ccc(Cl)cc4)c3)c2C(N)=O)cn1 [Compound 190, 3-(3-((4-chlorobenzyl)oxy)-4-((difluoromethyl)sulfonamido)phenyl)-5-((5-methoxypyrazin-2-yl)amino)-1H-pyrazole-4-carboxamide] | 0.01 to 1 µM | > 30 µM
CCS(=O)(=O)Nc1ccc(-c2n[nH]c(Nc3cnc(C4CC4)cn3)c2C(N)=O)cc1 [Compound 158, 5-((5-cyclopropylpyrazin-2-yl)amino)-3-(4-(ethylsulfonamido)phenyl)-1H-pyrazole-4-carboxamide] | 1 to 30 µM | > 30 µM
